Measurements published in the supplement of paper PMC4466236.
In all, about 33,000 sequences were measured (“E-score (dimensionless, -0.5 to 0.5)”: median about -0.058, highest 2% from about 0.35 on). The list shows a part of the results.

tested on: MvaT; assay: PBM 8-mer E-score (mean of HK and ME arrays) (E-score (dimensionless, -0.5 to 0.5)); higher = stronger relative binding preference; most listed sequences are background and not binding sites
In short: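 Full-length P. aeruginosa MvaT, with glutathione S-transferase fused to its N-terminus (cloned into pTH6838 by isothermal assembly), was tested by protein binding microarray using a previously described protocol. Two universal double-stranded 60-mer arrays (ME and HK) were used, each with a constant 25-mer primer region and a variable 35-mer region covering all 8-mers. The rank-based 8-mer E-score (-0.5 to 0.5) is the mean of the two arrays, parsed with a custom Python script.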

For CCAAAGAG, which “PBM 8-mer E-score” value is on record?
Its value is -0.0873.

For TCGTATAA, which “PBM 8-mer E-score” value is on record?
The value was 0.148.

For AAATAACC, which “PBM 8-mer E-score” value is on record?
The value was 0.375.

Which “PBM 8-mer E-score” value does the source give for AATTTTGG here?
The value was 0.205.

How did the “PBM 8-mer E-score” value turn out when AGAGGAGG was run?
Its value is -0.347.

For ATACGCCA, which “PBM 8-mer E-score” value is on record?
The value was 0.108.

CACGCCCA was tested. Which “PBM 8-mer E-score” value did it give?
Its value is -0.108.

For CGGCGGGA, which “PBM 8-mer E-score” value is on record?
Its value is -0.215.

Which “PBM 8-mer E-score” value does the source give for AAGGAATA here?
The value was 0.129.

How did the “PBM 8-mer E-score” value turn out when CAACCGTG was run?
The value was -0.00442.

For CCCACATC, which “PBM 8-mer E-score” value is on record?
Its value is -0.0956.

Which “PBM 8-mer E-score” value does the source give for ACGAGTAC here?
The value was 0.047.

How did the “PBM 8-mer E-score” value turn out when CCTCAGCC was run?
The value was -0.31.

With GGTCAACC as the sequence, how does the “PBM 8-mer E-score” value read?
Its value is -0.0984.

How did the “PBM 8-mer E-score” value turn out when AGATTACA was run?
The value was 0.211.

For GCTAAACC, which “PBM 8-mer E-score” value is on record?
The value was -0.0867.

Which “PBM 8-mer E-score” value does the source give for GAGAGCAA here?
The value was -0.125.

For AGCTTTAA, which “PBM 8-mer E-score” value is on record?
Its value is 0.191.

How did the “PBM 8-mer E-score” value turn out when GAATCGTA was run?
The value was -0.0702.

For GTTCGCGA, which “PBM 8-mer E-score” value is on record?
Its value is -0.0992.

With ACTAAGAC as the sequence, how does the “PBM 8-mer E-score” value read?
The value was 0.124.

For AGTTATAC, which “PBM 8-mer E-score” value is on record?
Its value is 0.393.

How did the “PBM 8-mer E-score” value turn out when ACCGAGAC was run?
Its value is -0.139.

For GAGCCGCC, which “PBM 8-mer E-score” value is on record?
The value was -0.287.

Which “PBM 8-mer E-score” value does the source give for CTGTCCCA here?
Its value is -0.0197.

How did the “PBM 8-mer E-score” value turn out when CTCGTCAA was run?
Its value is -0.174.

How did the “PBM 8-mer E-score” value turn out when ATGGAATC was run?
Its value is -0.0791.

CTCACCAA was tested. Which “PBM 8-mer E-score” value did it give?
Its value is 0.0522.

How did the “PBM 8-mer E-score” value turn out when ACGTGCGA was run?
The value was -0.0735.

How did the “PBM 8-mer E-score” value turn out when ATTTGTCC was run?
Its value is 0.0705.

For ATCAAGAG, which “PBM 8-mer E-score” value is on record?
The value was 0.0564.

Which “PBM 8-mer E-score” value does the source give for CAGCACCC here?
Its value is -0.198.

With GCTGGCAC as the sequence, how does the “PBM 8-mer E-score” value read?
The value was -0.298.

ATTGGACC was tested. Which “PBM 8-mer E-score” value did it give?
Its value is -0.203.

GTCTCTAA was tested. Which “PBM 8-mer E-score” value did it give?
The value was 0.00249.

CCAAAGCC was tested. Which “PBM 8-mer E-score” value did it give?
Its value is -0.213.

How did the “PBM 8-mer E-score” value turn out when CCGTCTAG was run?
Its value is -0.262.

How did the “PBM 8-mer E-score” value turn out when ACACAGTC was run?
Its value is -0.0997.

For AACCGCAA, which “PBM 8-mer E-score” value is on record?
The value was 0.00741.

CTGATGCC was tested. Which “PBM 8-mer E-score” value did it give?
The value was -0.231.

For CTTTCTCC, which “PBM 8-mer E-score” value is on record?
Its value is -0.155.

CTAATCAC was tested. Which “PBM 8-mer E-score” value did it give?
Its value is 0.0359.

For ACTACATA, which “PBM 8-mer E-score” value is on record?
Its value is 0.223.

With GTTCCCGA as the sequence, how does the “PBM 8-mer E-score” value read?
Its value is -0.223.

GCCCTAAC was tested. Which “PBM 8-mer E-score” value did it give?
The value was -0.154.

Which “PBM 8-mer E-score” value does the source give for AAGGACTG here?
The value was -0.152.

How did the “PBM 8-mer E-score” value turn out when CTCATGGC was run?
Its value is -0.172.

With TAGCTATA as the sequence, how does the “PBM 8-mer E-score” value read?
Its value is 0.241.

For AATGAACA, which “PBM 8-mer E-score” value is on record?
Its value is 0.2.

GTATACGA was tested. Which “PBM 8-mer E-score” value did it give?
The value was 0.184.

CATTTTCC was tested. Which “PBM 8-mer E-score” value did it give?
Its value is 0.0485.

For GGCACGCC, which “PBM 8-mer E-score” value is on record?
The value was -0.365.

With CAAAAGGC as the sequence, how does the “PBM 8-mer E-score” value read?
Its value is -0.139.

TTAAACAA was tested. Which “PBM 8-mer E-score” value did it give?
Its value is 0.321.

Which “PBM 8-mer E-score” value does the source give for CATCCGGG here?
Its value is -0.263.

How did the “PBM 8-mer E-score” value turn out when GAACTTTA was run?
The value was 0.346.

With CGGGCCTA as the sequence, how does the “PBM 8-mer E-score” value read?
Its value is -0.32.

GACGAGCC was tested. Which “PBM 8-mer E-score” value did it give?
Its value is -0.303.

For ATGTATAC, which “PBM 8-mer E-score” value is on record?
Its value is 0.332.

For CATTGATC, which “PBM 8-mer E-score” value is on record?
Its value is 0.161.

How did the “PBM 8-mer E-score” value turn out when GCATGCTA was run?
Its value is -0.195.

Which “PBM 8-mer E-score” value does the source give for ACGACCCA here?
The value was -0.13.

Which “PBM 8-mer E-score” value does the source give for CGGCCACA here?
Its value is -0.266.

With CGCAATTC as the sequence, how does the “PBM 8-mer E-score” value read?
Its value is 0.186.

How did the “PBM 8-mer E-score” value turn out when ACGCGTAA was run?
The value was -0.00986.

For AGGCTCAA, which “PBM 8-mer E-score” value is on record?
Its value is -0.283.

ATGAATGG was tested. Which “PBM 8-mer E-score” value did it give?
The value was 0.0285.

How did the “PBM 8-mer E-score” value turn out when ACCCGGAT was run?
The value was -0.142.

For CGGACCAG, which “PBM 8-mer E-score” value is on record?
Its value is -0.215.

Which “PBM 8-mer E-score” value does the source give for ACACGGCG here?
The value was -0.119.

With CAAAGCGC as the sequence, how does the “PBM 8-mer E-score” value read?
The value was -0.133.

How did the “PBM 8-mer E-score” value turn out when GGCTATAA was run?
The value was 0.151.

AGATAGAT was tested. Which “PBM 8-mer E-score” value did it give?
Its value is 0.152.

How did the “PBM 8-mer E-score” value turn out when ATCCTTAG was run?
The value was -0.00498.

How did the “PBM 8-mer E-score” value turn out when ATCTCACG was run?
Its value is -0.105.

Which “PBM 8-mer E-score” value does the source give for ATCCCGCC here?
Its value is -0.0462.

For ACCACAGG, which “PBM 8-mer E-score” value is on record?
The value was -0.115.

With AACCTCAT as the sequence, how does the “PBM 8-mer E-score” value read?
Its value is -0.0903.

GCAACAGA was tested. Which “PBM 8-mer E-score” value did it give?
Its value is -0.126.

How did the “PBM 8-mer E-score” value turn out when AAGTGAAT was run?
Its value is 0.0625.

For CAGTCTTC, which “PBM 8-mer E-score” value is on record?
The value was -0.152.

How did the “PBM 8-mer E-score” value turn out when TAGTTACA was run?
The value was 0.247.

With CAGAGGCG as the sequence, how does the “PBM 8-mer E-score” value read?
Its value is -0.168.

With GTTCCAAC as the sequence, how does the “PBM 8-mer E-score” value read?
Its value is 0.0038.

Which “PBM 8-mer E-score” value does the source give for ACTCGCTG here?
Its value is -0.0519.

ACCTCAGG was tested. Which “PBM 8-mer E-score” value did it give?
Its value is -0.21.
